Laboratory results as given in PubChem BioAssay AID493208 (National Center for Advancing Translational Sciences (NCATS), 2011).
Hit rate of the full screen: of about 44,000 compounds, about 340 (0.77%) were called active. Another 5% or so got no clear call; they are omitted. Calls come from the whole dose curve; as a rule, active = well fitted inhibition curve with a large enough effect; inconclusive = small, poorly fitted or top-dose-only effect; inactive = flat fitted curve, though single readings scatter. The list shows a part of the results.

assay: Acumen qHTS Assay for Inhibitors of the mTORC1 Signaling Pathway in MEF (Tsc2-/-, p53-/-) Cells: Sytravon; conditions: phospho-rpS6 immunofluorescence/PI, 24 h; series mostly up to 38.3 µM; activity change, negative = inhibition: at the top concentration;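 note: plate controls were DMSO for no effect and rapamycin for full effect; nearly all actives have a fitted effect of over 50% in size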
In short: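 Tsc2-/-, p53-/- mouse embryonic fibroblasts (empty-vector line) exposed to compound 24 hrs at 37 C, fixed, immunostained for phospho-rpS6 and counterstained with propidium iodide. Acumen laser scanning gives % positive cells from Alexa 488/PI ratio, thresholded using 7.5 nM rapamycin; PI count gives viability.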

Activity change, negative = inhibition, inactive:
CCOC(=O)c1cc2c(=O)n3ccccc3nc2n(CC2CCCO2)c1=NC(=O)c1ccc(OCC)cc1 (stereo not given) 2.14%
CN(Cc1ccccc1)C(=O)c1c[nH]c2ccc(S(=O)(=O)Nc3ccccc3F)cc2c1=O 4.52%
CCOc1cc(C(=O)N2CC(=O)Nc3ccc(F)cc3C2c2ccccc2)cc(OCC)c1OCC (stereo not given) -2.12%
COc1cc2nc(NCCc3ccc(Cl)cc3)n3nc(-c4ccccc4)nc3c2cc1OC -2.05%
CC(C)OCCCNC(=O)Cn1c(-c2cccs2)cc2cc(F)ccc21 0.883%
COc1ccc(N2CCN(CCCNC(=O)c3sc4ncccc4c3-n3cccc3)CC2)cc1 -4.22%
CCN(C(=O)c1nn(C)c2c1CSc1ccccc1-2)c1cccc(C)c1 -1.87%
COc1ccc(NC(=O)Cn2nc(C)c3c(C)n(-c4ccccc4)nc3c2=O)cc1OC -4.63%
COc1cc(C(=O)OCc2cc(=O)n3ccsc3n2)cc(OC)c1OC -11.3%
COc1ccc(S(=O)(=O)NCC(c2ccco2)S(=O)(=O)c2cccs2)cc1OC (stereo not given) -2.47%
CCOc1cc(-c2cc(C(=O)O)c3c(-c4ccccc4)[nH]nc3n2)ccc1O 2.7%
Cc1ccc(NC(=O)N(Cc2c[nH]c3ccccc23)C2CCCCCC2)cc1C 2.12%
O=c1n(Cc2ccc([N+](=O)[O-])cc2)c2ccccc2c2nc(-c3ccccc3)nn12 -0.59%
Cn1c(=O)n(C)c2cc(CNCc3ccc(F)cc3)ccc21 -6.32%
Cc1ccc(C(=O)N2CCc3cc(CNC(=O)c4ccccc4F)ccc32)cc1 0.382%
Cc1c(NC(=O)Nc2ccccc2C(F)(F)F)c(=O)n(-c2ccccc2)n1C -8.19%
Cc1cc(C)cc(-n2c(SCC(=O)Nc3ccccc3F)nc3c(oc4ccccc43)c2=O)c1 -10%
CCOc1ccc(NC(=O)c2cccc3c(=O)c4c([nH]c23)CCCC4)cc1 -11.1%
Cc1ccc(Cn2cnc3nc4c(cc3c2=O)CCCC4)cc1 1.03%
O=C(CS(=O)(=O)c1ccc(Cl)cc1)Nc1nc2ccc(Br)cc2s1 -1.21%
COc1ccc(CCNC(=O)CCN2N=C(c3ccccc3)CCC2=O)cc1OC 0.612%
Cc1oc2ncn(CC(C)C)c(=O)c2c1C(=O)N1CCN(c2ccccc2F)CC1 -0.196%
Cc1cc(C)c(NC(=O)CN(c2ccccc2)S(=O)(=O)N(C)C)c(C)c1 12.7%
CSc1ccc(CCNC(=O)CN2C(=O)COc3ccc(S(=O)(=O)N4CCCC4)cc32)cc1 -17.6%
O=C(Nc1ccc2oc(-c3ccc4ccccc4c3)nc2c1)c1cccc(Cl)c1Cl -20.1%
CCOc1ccc(NC(=O)c2cnn3c2NC(c2ccccc2)=CC3c2cccc(OC)c2OC)cc1 (stereo not given) -20%
Clc1ccc(-c2nnn3c2nc(N2CCCCC2)c2ccccc23)cc1 2.42%
Cc1ccccc1NC(=O)c1cc2ccccc2o1 -0.0724%
Cc1ccccc1-n1c(=O)c2ccccc2n(Cc2ccc(F)cc2)c1=O -9.92%
COC(=O)c1sc2cccc(F)c2c1S(=O)(=O)NCc1ccc(F)cc1 -16.4%
COc1ccc(C2CC(=O)N(Cc3cccc(C)c3)c3c2c(C)nn3-c2nc(C)cc(C)n2)c(OC)c1 (stereo not given) -0.385%
COc1ccc(-n2c(=O)c3c4c(sc3n(Cc3c(F)cccc3Cl)c2=O)CN(C(C)=O)CC4)cc1OC -0.407%
O=C(Nc1ccc(F)cc1)c1ncn(-c2ccccc2)n1 -6.32%
Cc1ccc(-c2noc(CN(C(=O)c3ccc(C(C)(C)C)cc3)C(C)C)n2)cc1 -8.07%
COc1cccc(NC(=O)Cn2c(=O)c3cccn3c3ccc(F)cc32)c1 3.23%
CCOC(=O)c1ccccc1NC(=O)CN(c1cc(C(F)(F)F)ccc1Cl)S(C)(=O)=O -2.94%
CCCCSCCCNC(=O)c1cn(CC)c2ccc(S(=O)(=O)N(C)C3CCCCC3)cc2c1=O -0.312%
COc1cccc(-c2nc(SCC(=O)NCc3ccccc3)c3c(=O)n(C)c(=O)n(C)c3n2)c1 -11.7%
O=C(Cn1ccc2cc(S(=O)(=O)N3CCCCCC3)ccc21)NCCc1ccccc1Cl -9.59%
Cc1ccc(CCNC(=O)CCS(=O)(=O)c2ccc3c(c2)oc(=O)n3C)cc1 0.561%
COc1cccc(N2CCN(S(=O)(=O)c3ccc(-c4cc(C(F)(F)F)on4)s3)CC2)c1 -1.87%
Cc1noc(NS(=O)(=O)c2ccc(NC(=O)COc3ccccc3Br)cc2)c1C -6.75%
CCOc1ccccc1NC(=O)Nc1ccccc1OCc1cc(=O)n2ccccc2n1 -5.92%
CN(CC(=O)NCc1ccc(Cl)cc1)S(=O)(=O)c1ccc2c(c1)c(=O)n(C)c(=O)n2C 0.96%
Cc1ccc(CCNC(=O)c2ccc(CS(=O)(=O)Cc3ccc(Cl)cc3)o2)cc1 -9.77%
CCOC(=O)c1scc(-c2ccc(C)cc2)c1S(=O)(=O)Nc1cc(C)ccc1C -15.4%
CCOc1ccccc1NC(=O)Cn1c(=O)n(-c2ccc(C)c(C)c2)c(=O)c2c(C)c(C(=O)N(C)C)sc21 -0.516%
CC(Nc1ncnc2c1cnn2-c1cccc(Cl)c1)c1ccccc1 (stereo not given) -24.5%
COc1cccc(-c2nnc(SCC(=O)N3CCc4ccccc43)o2)c1 0.454%
O=C(NCc1ccc(Cl)cc1)C(=O)NCC(c1cccnc1)N1CCN(c2ccccc2)CC1 (stereo not given) -7.51%
Cc1cc2c(cc1C)NC(CC(=O)Nc1cccc(C)c1C)C(=O)N2 (stereo not given) -11.8%
CCN(Cc1ccccc1)C(=O)CN1C(=O)COc2ccc(S(=O)(=O)N3CCOCC3)cc21 -1.81%
CCN(c1ccc(C)cc1C)S(=O)(=O)c1nnc(NC(=O)c2ccc(F)cc2)s1 4.06%
Cc1ccc2oc(=O)c(-c3nc(-c4cccs4)no3)cc2c1 -4.29%
COc1cccc(-c2cc(C(=O)Nc3ccc(OC)cc3OC)no2)c1 -0.534%
Cc1nn(CCC(=O)Nc2cccc(C#N)c2)c(C)c1S(=O)(=O)N1CCC(C)CC1 6.41%
COC(=O)c1ccccc1NC(=O)Cc1nc(-c2ccc(OC)cc2)no1 0.479%
COc1ccc(-n2cnc3cc(C(=O)NCCC4=CCCCC4)ccc32)cc1 0.373%
O=C(Nc1cccc(C(=O)OCc2cc(=O)n3ccsc3n2)c1)c1ccc(F)cc1 21.9%
COc1ccc(OC)c(NC(=O)CN(c2ccccc2OC)S(=O)(=O)c2ccc(C)cc2)c1 -8.74%
Cc1csc2nc(COC(=O)c3ccc(NC(=O)c4ccccc4Br)cc3)cc(=O)n12 -3.71%
CCOCCCNC(=O)CCC(=O)NNc1nc2ccccc2c2nc(C)nn12 -1.32%
Cc1nc2nc(SCC(=O)NCCc3ccc(Cl)cc3)nn2c(C)c1Cc1c(F)cccc1Cl -24.9%
CCCOc1ccc(C(=O)Nc2cccc(NC(=O)c3ccc(Cl)cc3Cl)c2)cc1 -10.2%
Cc1nn(CC(=O)NCc2ccco2)c(=O)c2nn(-c3ccccc3)c(C)c12 0.0523%
CC(=O)N1CCc2cc(CNS(=O)(=O)c3ccccc3C(F)(F)F)ccc21 8.41%
Cc1cc(C)cc(NC(=O)Cn2c(C)cc(C)c(C#N)c2=O)c1 13.6%
O=C(CSc1nc2ccccc2n1Cc1cccc(C(F)(F)F)c1)NCc1ccccc1 0%
CCOc1cccc(C2Oc3nc(SC)nnc3-c3ccccc3N2C(C)=O)c1OC (stereo not given) -4.05%
CC(=O)Nc1ccc(NC(=O)c2c(-c3ccccc3)noc2C)cc1 2.08%
O=C(O)c1ccc(CSc2nc3cccnc3n2Cc2cccc(F)c2)cc1 -0.182%
Nc1ncc(S(=O)(=O)N2CCN(c3ccccc3)CC2)cn1 -0.0412%
COC(=O)CC1Oc2ccc(Cl)cc2-n2cc(-c3ccc(C)cc3)nc21 (stereo not given) -6.82%
COc1cc(NC(=O)CSc2ccc(-c3sc(C)nc3C)nn2)cc(OC)c1 -12.6%
Cc1ccc(S(=O)(=O)C(CNC(=O)C(=O)NCCc2ccc(F)cc2)c2cccs2)cc1 (stereo not given) -11%
O=C(CSc1nc2c([nH]c3ccccc32)c(=O)n1-c1ccc(F)cc1)Nc1ccc2c(c1)OCO2 -2.61%
COc1ccc(Cl)cc1NC(=O)c1oc2ccc(S(=O)(=O)N3CCCCC3)cc2c1C 1.09%
COc1ccc(N2CCN(C(=O)c3ccc(CS(=O)c4cccc(C)c4)o3)CC2)cc1 (stereo not given) -17.9%
Oc1c(C(c2cccc(Cl)c2)N2CCOCC2)sc2nc(-c3ccco3)nn12 (stereo not given) -0.45%
CCN1c2ccccc2-c2nc(SCC(=O)Nc3cc(C)c(Cl)cc3OC)ncc2S1(=O)=O 0%
COc1ccc(CCNC(=O)c2c3c(nc4ccccc24)C(=O)N(C2CCCCC2)C3)cc1OC -7.97%
Cc1ccc(C)c(N2CCN(c3nc4ccccc4n4nnnc34)CC2)c1 1.03%
O=C(COc1ccc(F)cc1)NCc1ccc2c(c1)CCN2C(=O)c1ccc(F)cc1 -6.91%
O=C(Nc1ccc(F)c(Cl)c1)C1CCN(c2ncccn2)CC1 3.41%
Cc1cccc(OCC(=O)Nc2ccc(S(=O)(=O)N(Cc3ccccc3)c3ccccc3)cc2)c1 -8.47%
Cc1cc(-n2c(C)nc3ccccc3c2=O)ccc1NC(=O)c1cccc([N+](=O)[O-])c1C -0.578%
CCc1nn(CC(=O)NCC(C)c2ccccc2)c(=O)c2cc3c(OC)cccc3n12 (stereo not given) 0.666%
COC(=O)c1ccccc1NC(=O)C1CCCN(C(=O)c2cnn(-c3ccc(F)cc3)c2-n2cccc2)C1 (stereo not given) -5.04%
Cc1cc(Br)cc(C)c1OCC(=O)Nc1ccc(S(=O)(=O)Nc2ncccn2)cc1 6.78%
COCCn1c(=O)[nH]c2cc(C(=O)N3CCN(c4ccc(F)cc4)CC3)ccc2c1=O -10.3%
Cc1ccc(-n2ncc3c(N4CCN(Cc5ccccc5)CC4)ncnc32)cc1C 2.44%
N#C/C(=C\c1ccc(-c2ccc(Br)cc2)o1)C(=O)Nc1ccccc1O 5.67%
Cc1oc(-c2ccccc2F)nc1Cn1c(SCc2cccc(Cl)c2)nc2ccncc21 -9.95%
CCOCCc1nn2c(=O)cc(COC(=O)c3ccccc3Br)nc2s1 1.75%
Cc1ccc(CNC(=O)C(=O)NCC(c2cccs2)S(=O)(=O)c2ccccc2)cc1 (stereo not given) -15.1%
